# Test results reported in publication PMC4336329 (PLoS ONE, 2015).
# Among all 310,000 compounds or so, about 2,200 (0.71%) showed an effect of 50% or more. The effect is printed as a negative number. Some of the results follow.
# Target: human ether-à-go-go-related gene (hERG) potassium channel (human, UniProt Q12809)
# Experiment: primary screen, population patch clamp on CHO cells stably expressing hERG
# Chain of human ether-à-go-go-related gene (hERG) potassium channel (Q12809 whole entry, looked up): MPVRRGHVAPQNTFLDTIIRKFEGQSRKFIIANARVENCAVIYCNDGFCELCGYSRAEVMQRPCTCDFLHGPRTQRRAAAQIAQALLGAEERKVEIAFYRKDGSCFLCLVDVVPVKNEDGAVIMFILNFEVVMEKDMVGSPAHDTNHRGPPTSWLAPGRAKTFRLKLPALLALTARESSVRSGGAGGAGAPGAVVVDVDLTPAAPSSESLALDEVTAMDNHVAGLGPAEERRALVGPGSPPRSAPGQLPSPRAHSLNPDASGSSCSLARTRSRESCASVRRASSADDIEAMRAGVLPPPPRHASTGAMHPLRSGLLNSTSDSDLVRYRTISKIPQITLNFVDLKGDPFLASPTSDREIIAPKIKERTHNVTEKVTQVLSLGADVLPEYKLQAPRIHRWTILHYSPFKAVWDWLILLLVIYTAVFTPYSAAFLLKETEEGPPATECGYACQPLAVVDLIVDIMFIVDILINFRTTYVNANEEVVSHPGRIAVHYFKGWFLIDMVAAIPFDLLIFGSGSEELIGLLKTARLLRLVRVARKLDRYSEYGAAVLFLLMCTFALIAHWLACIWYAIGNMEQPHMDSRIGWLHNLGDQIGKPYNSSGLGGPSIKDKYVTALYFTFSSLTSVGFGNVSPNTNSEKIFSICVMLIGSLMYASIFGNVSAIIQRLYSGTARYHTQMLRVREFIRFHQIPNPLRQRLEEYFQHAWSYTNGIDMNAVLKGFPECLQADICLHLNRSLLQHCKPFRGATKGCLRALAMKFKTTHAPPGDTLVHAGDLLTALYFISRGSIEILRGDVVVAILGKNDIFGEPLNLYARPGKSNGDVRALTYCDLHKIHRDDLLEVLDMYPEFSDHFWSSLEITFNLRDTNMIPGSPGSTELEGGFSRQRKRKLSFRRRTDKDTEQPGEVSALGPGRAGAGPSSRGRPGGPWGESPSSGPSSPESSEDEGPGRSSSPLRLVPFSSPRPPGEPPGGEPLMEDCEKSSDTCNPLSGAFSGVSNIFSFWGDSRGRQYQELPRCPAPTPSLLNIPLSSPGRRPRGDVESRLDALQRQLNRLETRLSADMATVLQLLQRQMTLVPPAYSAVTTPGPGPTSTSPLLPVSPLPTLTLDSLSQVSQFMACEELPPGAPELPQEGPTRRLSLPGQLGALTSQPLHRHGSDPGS
row,Structure (SMILES),"hERG current change (%, negative = inhibition) at 1uM [%]"
1,CCOC(=O)N1CCN(S(=O)(=O)c2ccc(C(=O)N(CCN(C)C)c3nc4c(C)cccc4s3)cc2)CC1.Cl,9.5
2,CCn1c(SCC(=O)Nc2ccc3c(c2)OCO3)nc2ccccc21,14.1
3,Cc1ccc(C(=O)Nc2c(C)cc(-c3ccc(Cl)cc3)oc2=O)cc1,4.39
4,Cn1c(O)c(C2=c3ccccc3=NC2=O)sc1=Nc1ccc(Cl)cc1,24.1
5,COc1ccc(/C=N/Nc2nc3ccccc3o2)cc1OC,16.9
6,COc1ccc(C2/C=C\CN(Cc3ccco3)CC(=O)N2Cc2ccc(F)cc2)cc1 (centres unmarked),9.08
7,O=c1[nH]c(=O)n(CCc2ccccc2)c(O)c1C=NCc1ccc2c(c1)OCO2,14
8,Cc1nc(Nc2ccc(Cl)cc2)c2oc3ccccc3c2n1,8.9
9,Cc1cc(C)c(NC(=O)CSc2nc3ccc(NC(=O)CSc4nnnn4Cc4ccccc4)cc3s2)c(C)c1,4.96
10,Cn1c(=O)c2c(-c3ccccc3)n3c4ccccc4ncc3c2n(C)c1=O,-3.46
11,CC(C)COC(=O)C1[C@H]2C(=O)N(Cc3cccs3)C[C@]23C=C[C@H]1O3 (some centres unmarked),12.3
12,CCCCOc1cccc(C(=O)N(Cc2ccco2)C2CCS(=O)(=O)C2)c1 (centres unmarked),9.71
13,CCN(CC(=O)Nc1ccccc1OC)C(=O)c1cccc(-n2cccc2)c1,9.03
14,CN1CCCN(C(=O)CC2(CC(=O)O)CCCC2)CC1.Cl,10.6
15,CCCCCCCCCCOC(=O)c1csc2nnsc12,0.201
16,N#Cc1ccc(C(=O)Nc2ccc([N+](=O)[O-])cc2)c(F)c1,13.1
17,CC(C)NS(=O)(=O)c1ccc(OCC(=O)Nc2cccc(F)c2)cc1,2.49
18,CN(C)/C=C/C(=O)c1cccc(Oc2ncccn2)c1,9.36
19,COc1ccc(N2CC(C(=O)OCC(=O)NCc3ccccc3)CC2=O)cc1 (centres unmarked),-9.59
20,Cc1ccc(N(C(C)C(=O)Nc2ccc(S(=O)(=O)N3CCOCC3)cc2)S(C)(=O)=O)cc1C (centres unmarked),10.3
21,COc1ccc(C2=NS(=O)(=O)N(C)C(C(=O)N3CCCCC3C)=C2)cc1 (centres unmarked),-0.279
22,COC(=O)c1c(C)oc(C)c1S(=O)(=O)NCc1cccs1,9.03

row,Structure (SMILES),"hERG current change (%, negative = inhibition) at 1uM [%]"
1,COc1ccc(NC(=S)Nc2cccc(C(C)=O)c2)cc1OC,0.566
2,O=C1CC(=O)N(Cc2cccs2)C(=O)N1,5.59
3,CCOC(=O)c1cc(NC(=O)CCC(=O)O)ccc1N1CCCCC1,16.5
4,CCOC(=O)c1c(S(=O)(=O)NCCc2ccco2)c(C)n(C)c1C,8.95
5,CCn1nc(CC(=O)Nc2nnc(CC(=O)N3CCOCC3)s2)c2ccccc2c1=O,15.3
6,COc1cc(/C=C/C(=O)OCC(=O)NC(=O)NCc2ccccc2)ccc1OCC#N,8.33
7,COc1ccccc1C(C)NC(=O)CN(C)CC(=O)Nc1c(C)cccc1C (centres unmarked),1.01
8,COc1ccc(N(Cc2cc(=O)[nH]c3ccccc23)C(=O)C(C)C)cc1,3.64
9,COc1ccccc1[C@@H]1C(c2cccc(C)c2)=NN(c2ccccc2)[C@H]1C(=O)N1CCOC1=O,6.93
10,O=S(=O)(c1ccc(Cl)cc1)N1CCN(C2CCCCCC2)CC1,1.61
11,COc1ccc(NC(=O)CSc2ccc3nnc(-c4cccnc4)n3n2)c(OC)c1,2.46
12,O=C(c1ccc(F)cc1)N1CCC2(CC1)OCCO2,17.4
13,O=C(O)CN(c1ccc(F)cc1)S(=O)(=O)c1ccc2c(c1)OCCO2,-2.77
14,Oc1ccc2oc3c(c2c1/C=N/n1cnnc1)CCCC3,-7.1
15,O=C(NC1CCCCC1)c1cnn2c(C(F)(F)F)cc(-c3ccco3)nc12,-7.98
16,COc1cc(NS(=O)(=O)c2ccc(NC(=S)NC(C)=O)cc2)nc(OC)n1,17
17,O=C(NCCCN1CCOCC1)c1cc2cc(Br)ccc2oc1=O,3.72
18,O=C(NCCC1=CCCCC1)c1cc(-c2ccncc2)nc2ccccc12,8.31
19,COC(=O)c1cc(CNC(=O)c2ccc(S(=O)(=O)N(C)c3ccccc3)cc2)ccc1OC,7.08
20,OCC[C@@H]1C[C@@H](O)[C@H](O)[C@]2(Cc3ccccc3O2)O1,19.1
21,CCc1cccc(NC(=O)CCCn2nc(CC)n3c(cc4occc43)c2=O)c1,4.68
22,Cc1cccc(CSC2=NCCN2S(=O)(=O)c2ccc(F)cc2)c1,3.05
